Measurements published in the supplement of paper PMC3334620.
Over roughly 33,000 sequences, “E-score (-0.5 to 0.5)” has its median near -0.012; the highest 2% begin near 0.27. The list shows a part of the results.

Each sequence was assayed against T1, Vhr1 (UniProt P40522) (assay: PBM E-score (8-mer binding enrichment) (E-score (-0.5 to 0.5)); higher = stronger / more preferred TF binding; most listed sequences are background and not binding sites). Conditions: protein concentration: 200 nM; construct: GST-full length.
T1 sequence: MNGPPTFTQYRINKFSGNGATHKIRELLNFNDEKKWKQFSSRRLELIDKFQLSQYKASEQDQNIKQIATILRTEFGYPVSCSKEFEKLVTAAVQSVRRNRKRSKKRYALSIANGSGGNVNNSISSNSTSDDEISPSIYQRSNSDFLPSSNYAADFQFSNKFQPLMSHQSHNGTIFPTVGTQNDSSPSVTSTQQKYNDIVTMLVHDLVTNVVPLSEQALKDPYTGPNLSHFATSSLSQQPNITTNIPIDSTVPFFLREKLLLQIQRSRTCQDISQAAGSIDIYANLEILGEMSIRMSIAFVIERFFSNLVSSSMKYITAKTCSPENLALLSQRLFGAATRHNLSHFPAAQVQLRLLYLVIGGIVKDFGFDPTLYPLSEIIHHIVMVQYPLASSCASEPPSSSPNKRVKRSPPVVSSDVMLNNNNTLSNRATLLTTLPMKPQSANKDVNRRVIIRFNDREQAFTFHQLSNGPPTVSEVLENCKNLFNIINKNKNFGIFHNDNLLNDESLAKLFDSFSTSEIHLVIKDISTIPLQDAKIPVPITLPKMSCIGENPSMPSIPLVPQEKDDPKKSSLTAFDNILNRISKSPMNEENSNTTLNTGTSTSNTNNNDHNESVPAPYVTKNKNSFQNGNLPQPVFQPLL
In short: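 Masliner-normalised scans of fluorescent anti-GST signal were the basis for scoring. That signal came from GST-tagged yeast transcription factors applied at about 100-200 nM to double-stranded universal all-10-mer Agilent arrays on fresh or once-stripped slides. Each ungapped eight-base word, pooled with its reverse complement, received an E-score from the Universal PBM Analysis Suite.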

Sequence | PBM E-score
GGGAACAC | -0.0418
GATGGAGA | 0.0458
CCTCCCTA | -0.0884
CTCAGCTC | -0.0284
ATGACAGC | -0.0467
GAGGAAGC | -0.151
GGTGGTAC | -0.101
TATTTCGA | 0.132
AACCAACG | -0.0349
ACCCATGC | 0.273
TCATCAGA | 0.0944
AGACACCG | 0.21
AACGGAGC | -0.14
GGCTGCCA | 0.181
CCCCGTAC | -0.115
ACTCCCGG | 0.0384
CAGATGTC | 0.105
CACACGTC | -0.0418
AAGTCACT | 0.209
CGCGCACA | 0.102
AAAATGTC | -0.229
AGCTCTGG | -0.219

Sequence | PBM E-score
AAAATTGC | -0.133
CATCGAGA | -0.00344
CAATGGTG | -0.0981
ATGGTTCC | 0.318
GTGGGAGA | 0.0114
CGACCGAG | -0.0809
CAACTTGC | -0.129
CCACCTAA | 0.0225
AGACCGCT | -0.159
CTCAGAAG | -0.0987
ACGGGTGG | 0.23
CATAACAA | 0.142
ATGCTAAC | -0.153
ACTCCGAC | 0.332
AACCGCCA | 0.142
CCAGTCAC | 0.296
CTGCGGCA | -0.249
CGTTACCC | 0.0276
CAACCCGG | -0.116
TGATCAAA | -0.0544
ATAGTAAA | 0.228
GAAATAGC | -0.197

Sequence | PBM E-score
CCGTCGGC | -0.143
GACGTACA | -0.0564
GTTTCAGA | -0.0471
ACCCAAGA | 0.0309
AGCGAGCC | 0.0642
AGAGAGTC | 0.215
GACGCATA | 0.0856
ACTGACGG | -0.148
ACTCCCTC | 0.0377
ACCATTGG | 0.0996
ATCACACA | 0.282
CATCGACA | 0.0338
AAGTGTGG | -0.0606
AGTCCTCG | 0.0538
AGGCCTGC | -0.266
GGAGCGGA | 0.0344
CGGGAACG | -0.106
ACCCCGAG | -0.0233
AACGCCTA | -0.16
ACACACTC | 0.293
CATGAATA | 0.0636
CAGGCAAA | -0.071

Sequence | PBM E-score
GCGCTAAC | -0.0165
CCTGGACC | -0.0193
ACCCCACG | -0.0797
ATCGGAAC | 0.144
GTGGGCAA | -0.157
AAGTCGCC | -0.0133
CTAACTAA | -0.0113
AGCCTGAA | 0.0329
ATGCTCGC | 0.0137
AACTTGGC | -0.119
ACGTCTAC | -0.0294
CCAGAGCG | -0.145
AAATCCCC | -0.163
CATCTTTC | -0.226
ACACCCAT | 0.191
GCTAACGA | -0.0417
AACTTACA | -0.034
CATAAATG | 0.022
ACTCATCG | 0.304
GACAGGAC | 0.063
CGTGTCCC | 0.134
GGCCAGGA | -0.105

Sequence | PBM E-score
AAGTAAGA | -0.146
AAGGCACG | -0.237
AAATGTCC | -0.349
AATGGCGT | 0.00414
AAATTCCC | -0.154
GCGCTACA | -0.167
GGGGGATA | -0.109
GTGAAACA | 0.0937
CCCCCAGG | -0.0911
ATGATTTC | 0.249
ATCCTGGA | 0.0612
GGTCCATA | 0.0267
AGCCAGAC | 0.0846
GGCCTAGA | -0.0432
AGGTAGTC | 0.225
ACTCTGAC | 0.204
CGTAAAAC | -0.264
CGACATTA | -0.0133
GTAGCCTA | -0.168
GTAGCGAC | -0.0738
GCATTGAA | -0.0212
CAGTTGCA | -0.035
